We go through 39 compounds from the antibiotic and cytotoxicity screens of Wong et al. (2023).

The other results are listed elsewhere or left out.

Assay [1] deals with HSkMC (human skeletal muscle cells). Put plainly: cytotoxicity call (relative viability < 0.9). To be noted: 10 µM.
Assay [2] concerns HepG2. The assay is described as follows: cytotoxicity call (relative viability < 0.9). To be noted: 10 µM.
Assay [3] concerns S. aureus RN4220. The assay is described as follows: growth inhibition call (relative growth <= 0.2). To be noted: 50 µM.

For the compound `C[C@@H]1CCCCO[C@H](CN(C)Cc2ccc(Cl)c(Cl)c2)[C@H](C)CN([C@@H](C)CO)C(=O)c2cc(NC(=O)Cc3ccccc3)ccc2O1`, the cytotoxicity call in assay [1] and in assay [2] was “inactive” throughout. In assay [3], the growth inhibition call is “inactive”.

For the compound `Cc1ccc(S(=O)(=O)Nc2ccc3c(c2)C(=O)N([C@H](C)CO)C[C@H](C)[C@@H](CN(C)C(=O)C2CCCCC2)OCCCC[C@H](C)O3)cc1`, the cytotoxicity call in assay [1] and in assay [2] was “inactive” in each case. Further, the growth inhibition call in assay [3] is “inactive”.

Consider `COc1ccc(NC(=O)N(C)C[C@H]2Oc3c(NC(=O)Nc4ccc(C(F)(F)F)cc4)cccc3C(=O)N([C@H](C)CO)C[C@@H]2C)cc1`, for which the cytotoxicity call in assay [1] and in assay [2] was “inactive” in each case. Moreover, in assay [3], the growth inhibition call was “inactive”.

For the compound `C[C@@H]1CN([C@H](C)CO)C(=O)c2cc(C#Cc3ccccc3F)cnc2O[C@H]1CN(C)C(=O)C1CCOCC1`, the cytotoxicity call in assay [1] and in assay [2] was “inactive” throughout. Also, the growth inhibition call in assay [3] is “inactive”.

Regarding `C[C@H]1CN([C@@H](C)CO)S(=O)(=O)c2ccc(C3=CCCC3)cc2O[C@H]1CN(C)S(=O)(=O)c1cn(C)cn1`, the cytotoxicity call in assay [1] and in assay [2] was “inactive” throughout. In assay [3], the growth inhibition call was “inactive”.

On to `O=C(CN1CCOCC1)N[C@@H]1CC[C@@H](CCNC(=O)C2CCC2)O[C@@H]1CO`, for which the cytotoxicity call in assay [1] and in assay [2] was “inactive” each time. For the same compound, in assay [3], the growth inhibition call is “inactive”.

Take `C[C@@H]1CN([C@@H](C)CO)C(=O)c2cc(NC(=O)Cn3cnnn3)ccc2O[C@H]1CN(C)Cc1ccc(C(=O)O)cc1`: the cytotoxicity call in assay [1] and in assay [2] was “inactive” in each case. For the same compound, the growth inhibition call in assay [3] was “inactive”.

Take `CCCNC(=O)Nc1ccc2c(c1)OC[C@@H](C)N(Cc1ccc(-c3ccccn3)cc1)C[C@H](C)[C@@H](OC)CN(C)C2=O`: the cytotoxicity call in assay [1] and in assay [2] was “inactive” throughout. For the same compound, the growth inhibition call in assay [3] is “inactive”.

With `Cc1nc(-c2sc3ccc(Cl)cc3c2C)cs1`, the cytotoxicity call in assay [1] and in assay [2] was “inactive” in each case. In addition, the growth inhibition call in assay [3] was “inactive”.

`C[C@H]1CN([C@@H](C)CO)S(=O)(=O)c2ccc(C#CC3(O)CCCC3)cc2O[C@H]1CN(C)C(=O)c1ccncc1`: the cytotoxicity call in assay [1] and in assay [2] was “inactive” in each case. In addition, the growth inhibition call in assay [3] was “inactive”.

`C[C@@H]1CN([C@@H](C)CO)C(=O)c2cc(NS(=O)(=O)c3ccccc3)ccc2O[C@@H]1CN(C)Cc1ccc(-c2ccccc2)cc1`: the cytotoxicity call in assay [1] and in assay [2] was “active” throughout. Further, the growth inhibition call in assay [3] is “inactive”.

Regarding `CS(=O)(=O)Nc1ccc2c(c1)[C@H]1C[C@H](CC(=O)NCc3ccc(-c4ccccc4)cc3)O[C@H](CO)[C@H]1O2`, the cytotoxicity call in assay [1] and in assay [2] was “inactive” in each case. Besides, in assay [3], the growth inhibition call was “inactive”.

As to `N[C@@H](Cc1ccccn1)c1ccccc1`, the cytotoxicity call in assay [1] and in assay [2] was “inactive” in each case. The growth inhibition call in assay [3] was “inactive”.

For the compound `NNC(=O)COc1ccccc1`, the cytotoxicity call in assay [1] and in assay [2] was “inactive” each time. For the same compound, the growth inhibition call in assay [3] is “inactive”.

Take `CC(=O)O[C@H](C[C@H](O)C(C)(O)CCC=C(C)C)/C(C)=C/COC[C@@H](O)[C@@H](O)[C@@H](O)[C@@H](O)CO` (some centres not stated): the cytotoxicity call in assay [1] and in assay [2] was “inactive” each time. Further, in assay [3], the growth inhibition call is “inactive”.

On to `C[C@H](CO)N1C[C@H](C)[C@@H](CN(C)Cc2ccc(Cl)c(Cl)c2)Oc2c(NC(=O)Nc3ccc(C(F)(F)F)cc3)cccc2C1=O`, for which the cytotoxicity call in assay [1] and in assay [2] was “active” throughout. Moreover, in assay [3], the growth inhibition call was “inactive”.

Consider `CCC(=O)OC1C(OC2C(C)C(OC3CC(C)(OC)C(O)C(C)O3)C(C)C(=O)OC(CC)C(C)(O)C(O)C(C)C(=O)C(C)CC2(C)O)OC(C)CC1N(C)C.CCCCCCCCCCCCOS(=O)(=O)O` (configuration not stated), for which the cytotoxicity call in assay [1] and in assay [2] was “inactive” each time. In addition, in assay [3], the growth inhibition call was “inactive”.

`C[C@@H]1CN([C@@H](C)CO)C(=O)c2cc(NC(=O)Nc3ccc(C(F)(F)F)cc3)ccc2O[C@@H](C)CCCCO[C@@H]1CN(C)C(=O)CCCN(C)C`: the cytotoxicity call in assay [1] and in assay [2] was “inactive” in each case. The growth inhibition call in assay [3] was “inactive”.

As for `CC(C)CC#Cc1ccc2c(c1)O[C@H](CN(C)C(=O)Cc1ccccn1)[C@H](C)CN([C@H](C)CO)S2(=O)=O`, the cytotoxicity call in assay [1] and in assay [2] was “inactive” in each case. The growth inhibition call in assay [3] was “inactive”.

For the compound `Cc1ccc(S(=O)(=O)N(C)C[C@@H]2OCCCC[C@@H](C)Oc3ccc(NS(=O)(=O)c4ccc(Cl)cc4)cc3C(=O)N([C@H](C)CO)C[C@H]2C)cc1`, the cytotoxicity call in assay [1] and in assay [2] was “inactive” each time. In addition, the growth inhibition call in assay [3] is “inactive”.

Regarding `CC(=O)OC1(C(C)=O)CCC2C3C=C(C)C4=CC(=O)CCC4(C)C3CCC21C` (configuration not stated), the cytotoxicity call in assay [1] and in assay [2] was “inactive” each time. In assay [3], the growth inhibition call is “inactive”.

Turning to `Cc1noc(C)c1NC(=O)N(C)C[C@@H]1Oc2ccc(NC(=O)c3ccncc3)cc2C(=O)N([C@H](C)CO)C[C@@H]1C`, the cytotoxicity call in assay [1] and in assay [2] was “inactive” throughout. Moreover, the growth inhibition call in assay [3] was “inactive”.

With `Cc1noc(C)c1NC(=O)N(C)C[C@H]1OCCCC[C@@H](C)Oc2ccc(NC(=O)Nc3ccc(F)cc3)cc2C(=O)N([C@H](C)CO)C[C@@H]1C`, the cytotoxicity call in assay [1] and in assay [2] was “inactive” each time. In addition, in assay [3], the growth inhibition call is “inactive”.

`C[C@H]1CN([C@@H](C)CO)C(=O)Cc2cc(NC(=O)C3CC3)ccc2O[C@@H]1CN(C)Cc1ccc(C(=O)O)cc1`: the cytotoxicity call in assay [1] and in assay [2] was “inactive” in each case. The growth inhibition call in assay [3] is “inactive”.

Regarding `COc1ccc2c3c([nH]c2c1)[C@@H](CO)N(Cc1nccs1)C[C@]13CCN(CC1)C(=O)C1CCOCC1`, the cytotoxicity call in assay [1] and in assay [2] was “inactive” in each case. In addition, the growth inhibition call in assay [3] is “inactive”.

As for `Cc1noc(C)c1NC(=O)Nc1ccc2c(c1)C(=O)N([C@@H](C)CO)C[C@@H](C)[C@@H](CN(C)C(=O)Nc1ccc(C(F)(F)F)cc1)O2`, the cytotoxicity call in assay [1] and in assay [2] was “inactive” throughout. The growth inhibition call in assay [3] was “active”.

Take `C[C@@H]1CN([C@H](C)CO)C(=O)c2ccccc2-c2ccccc2CO[C@@H]1CN(C)C(=O)N[C@H](C)c1ccccc1`: the cytotoxicity call in assay [1] and in assay [2] was “inactive” throughout. For the same compound, in assay [3], the growth inhibition call is “inactive”.

Regarding `O=C(C[C@@H]1CC[C@H]2[C@@H](COC[C@H](O)CN2S(=O)(=O)c2ccc(Cl)cc2)O1)NCCN1CCCCC1`, the cytotoxicity call in assay [1] and in assay [2] was “inactive” each time. Moreover, the growth inhibition call in assay [3] is “inactive”.

Consider `COCC#Cc1cnc2c(c1)C(=O)N([C@@H](C)CO)C[C@H](C)[C@@H](CN(C)C(=O)c1ccc3c(c1)OCO3)O2`, for which the cytotoxicity call in assay [1] and in assay [2] was “inactive” in each case. The growth inhibition call in assay [3] was “inactive”.

As for `C[C@@H]1CN([C@@H](C)CO)C(=O)c2cc(NC(=O)Nc3ccc(F)cc3)ccc2O[C@@H]1CN(C)C(=O)Nc1ccc(C(F)(F)F)cc1`, the cytotoxicity call in assay [1] is “active”. Also, the cytotoxicity call in assay [2] was “inactive”. Further, the growth inhibition call in assay [3] was “inactive”.

In the case of `N[C@H]1CC[C@H](CCn2cc(-c3cccc(F)c3)nn2)O[C@@H]1CO`, the cytotoxicity call in assay [1] and in assay [2] was “inactive” throughout. The growth inhibition call in assay [3] is “inactive”.

With `CC(C)NC(=O)N(C)C[C@@H]1Oc2ccc(NC(=O)Cn3cnnn3)cc2CC(=O)N([C@@H](C)CO)C[C@H]1C`, the cytotoxicity call in assay [1] and in assay [2] was “inactive” in each case. In addition, in assay [3], the growth inhibition call was “inactive”.

Turning to `C[C@@H]1CCCCO[C@H](CN(C)Cc2ccncc2)[C@@H](C)CN([C@H](C)CO)C(=O)c2cc(NC(=O)c3ccccc3)ccc2O1`, the cytotoxicity call in assay [1] and in assay [2] was “inactive” in each case. The growth inhibition call in assay [3] is “inactive”.

As for `C[C@H]1CN([C@@H](C)CO)C(=O)Cc2cc(NS(=O)(=O)c3ccc(Cl)cc3)ccc2O[C@H]1CN(C)Cc1ccc(C(=O)Nc2ccccc2N)cc1`, the cytotoxicity call in assay [1] and in assay [2] was “inactive” throughout. Also, the growth inhibition call in assay [3] was “inactive”.

On to `C[C@@H]1CN([C@@H](C)CO)C(=O)c2cc(NC(=O)c3ccncc3)ccc2O[C@@H](C)CCCCO[C@H]1CN(C)C(=O)C1CCCCC1`, for which the cytotoxicity call in assay [1] and in assay [2] was “inactive” each time. Besides, the growth inhibition call in assay [3] was “inactive”.

With `O=C(C[C@H]1CC[C@H]2[C@@H](COC[C@H](O)CN2C(=O)Nc2ccc3c(c2)OCO3)O1)N1CCN(c2ccccc2)CC1`, the cytotoxicity call in assay [1] and in assay [2] was “inactive” throughout. Moreover, in assay [3], the growth inhibition call is “inactive”.

On to `COc1ccc(NC(=O)N(C)C[C@H]2Oc3ccc(NC(=O)C4CC4)cc3C(=O)N([C@H](C)CO)C[C@@H]2C)cc1`, for which the cytotoxicity call in assay [1] and in assay [2] was “inactive” in each case. Besides, the growth inhibition call in assay [3] is “inactive”.

Turning to `Cc1nccn1CCN`, the cytotoxicity call in assay [1] and in assay [2] was “inactive” throughout. For the same compound, the growth inhibition call in assay [3] is “inactive”.

On to `C[C@@H]1CN([C@@H](C)CO)C(=O)c2cccc(NC(=O)Nc3ccccc3)c2O[C@@H]1CN(C)Cc1ccc(Oc2ccccc2)cc1`, for which, in assay [1], the cytotoxicity call was “inactive”. Also, the cytotoxicity call in assay [2] was “active”. For the same compound, in assay [3], the growth inhibition call is “inactive”.
